# The list shows a part of the results.
# B1: LSectin (Mus musculus), Q8BNX1 (protein)
# chain: MNTGEYNKLGSAIEEVSRGQLGRWECYKQRLFFLVLALLVATVLWALILSTLLSSASSKLRVLLSHQDLLRTNASEQKMTLSSLKDDIGACRNCCSVTKAQLQTTLAEFKDIQAKLMEQESILKELQERVTQDLAKASRDRENIRSELFQALEAVKRQNSSCEQCPPSWLPFQGSCYYFSETQATWDTAQSYCGGQGAHLVIVRGLNEQGFLSQHTRGRGYWLGLRAVRHLNKIQGYRWVDGASLNFSHWNSGEPNDSRGHEDCIMMLHSGLWNDAPCTNERDGWICEKRSSCY
# Experiments:
# Assay in all cases: glycan array binding signal (z-score within array); higher = stronger binding
# Conditions in all cases: glycan notation: IUPAC condensed, linker removed
# [1] = biological target: Fuc(a1-2)[GalNAc(a1-3)]Gal(b1-4)GlcNAc(b1-3)GalNAc
# Outline: (§1)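 Glycan array data came from 3228 arrays in the Consortium for Functional Glycomics database, and only arrays with an available protein sequence were kept. Glycan names were put into IUPAC-condensed notation, and columns mapping to the same glycan were averaged. The binding signal is a within-array Z-score, averaged across arrays of one protein sequence run at different concentrations or buffers and across linkers. A negative Z-score can be read as non-binding.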
# [2] = biological target: Fuc(a1-2)[GalNAc(a1-3)]Gal(b1-4)[Fuc(a1-3)]GlcNAc
# Outline: as §1
# [3] = biological target: Fuc(a1-2)[GalNAc(a1-3)]Gal(b1-4)[Fuc(a1-3)]GlcNAc(b1-3)GalNAc
# Outline: as §1
# [4] = biological target: Fuc(a1-2)[GalNAc(a1-4)]Gal(b1-4)GlcNAc
# Outline: as §1
# [5] = biological target: Fuc(a1-2)[GalNAc(b1-3)]Gal
# Outline: as §1
# [6] = biological target: Fuc(a1-3)GlcNAc
# Outline: as §1
# [7] = biological target: Fuc(a1-3)[Gal(b1-4)]Glc6S
# Outline: as §1
# [8] = biological target: Fuc(a1-3)[Gal(b1-4)]GlcNAc
# Outline: as §1
# [9] = biological target: Fuc(a1-3)[Gal(b1-4)]GlcNAc(b1-2)Man(a1-3)[Fuc(a1-3)[Gal(b1-4)]GlcNAc(b1-2)Man(a1-6)]Man(b1-4)GlcNAc(b1-4)GlcNAc
# Outline: as §1
# [10] = biological target: Fuc(a1-3)[Gal(b1-4)]GlcNAc(b1-2)Man(a1-3)[Fuc(a1-3)[Gal(b1-4)]GlcNAc(b1-2)Man(a1-6)]Man(b1-4)GlcNAc(b1-4)[Fuc(a1-6)]GlcNAc
# Outline: as §1
# [11] = biological target: Fuc(a1-3)[Gal(b1-4)]GlcNAc(b1-2)Man(a1-6)[Gal(b1-4)GlcNAc(b1-2)Man(a1-3)]Man(b1-4)GlcNAc(b1-4)GlcNAc
# Outline: as §1
# [12] = biological target: Fuc(a1-3)[Gal(b1-4)]GlcNAc(b1-3)Gal(b1-3)[Fuc(a1-4)]GlcNAc
# Outline: as §1
# [13] = biological target: Fuc(a1-3)[Gal(b1-4)]GlcNAc(b1-3)GalNAc
# Outline: as §1
# [14] = biological target: Fuc(a1-3)[Gal(b1-4)]GlcNAc(b1-4)Gal(b1-4)[Fuc(a1-3)]GlcNAc
# Outline: as §1
# [15] = biological target: Fuc(a1-3)[Gal(b1-4)]GlcNAc(b1-4)Gal(b1-4)[Fuc(a1-3)]GlcNAc(b1-4)Gal(b1-4)[Fuc(a1-3)]GlcNAc
# Outline: as §1
# [16] = biological target: Fuc(a1-3)[Gal(b1-4)]GlcNAc(b1-6)[Gal(b1-3)GlcNAc(b1-3)]Gal(b1-4)Glc
# Outline: as §1
# [17] = biological target: Fuc(a1-3)[Gal(b1-4)]GlcNAc6S
# Outline: as §1
# [18] = biological target: Fuc(a1-3)[Gal3S(b1-4)]Glc6S
# Outline: as §1
# [19] = biological target: Fuc(a1-3)[Gal3S(b1-4)]GlcNAc
# Outline: as §1
# [20] = biological target: Fuc(a1-3)[Gal3S(b1-4)]GlcNAc6S
# Outline: as §1
# [21] = biological target: Fuc(a1-3)[GalNAc(b1-4)]GlcNAc
# Outline: as §1
# [22] = biological target: Fuc(a1-4)GlcNAc
# Outline: as §1
# [23] = biological target: Fuc(b1-3)GlcNAc
# Outline: as §1
# [24] = biological target: Gal(a1-2)Gal
# Outline: as §1
# [25] = biological target: Gal(a1-3)Gal
# Outline: as §1
# [26] = biological target: Gal(a1-3)Gal(b1-3)GlcNAc
# Outline: as §1
# [27] = biological target: Gal(a1-3)Gal(b1-3)GlcNAc(b1-2)Man(a1-3)[Gal(a1-3)Gal(b1-3)GlcNAc(b1-2)Man(a1-6)]Man(b1-4)GlcNAc(b1-4)GlcNAc
# Outline: as §1
# [28] = biological target: Gal(a1-3)Gal(b1-3)GlcNAc(b1-3)GalNAc
# Outline: as §1
# [29] = biological target: Gal(a1-3)Gal(b1-3)[Fuc(a1-4)]GlcNAc(b1-2)Man(a1-3)[Gal(a1-3)Gal(b1-3)[Fuc(a1-4)]GlcNAc(b1-2)Man(a1-6)]Man(b1-4)GlcNAc(b1-4)GlcNAc
# Outline: as §1
# [30] = biological target: Gal(a1-3)Gal(b1-4)Glc
# Outline: as §1
binder,measurement,setting,value
B1,glycan array binding signal (z-score),[1],-0.189
same,glycan array binding signal (z-score),[2],-0.13
same,glycan array binding signal (z-score),[3],-0.179
same,glycan array binding signal (z-score),[4],-0.131
same,glycan array binding signal (z-score),[5],-0.153
same,glycan array binding signal (z-score),[6],-0.135
same,glycan array binding signal (z-score),[7],-0.159
same,glycan array binding signal (z-score),[8],-0.101
same,glycan array binding signal (z-score),[9],-0.158
same,glycan array binding signal (z-score),[10],-0.116
same,glycan array binding signal (z-score),[11],-0.152
same,glycan array binding signal (z-score),[12],-0.144
same,glycan array binding signal (z-score),[13],-0.184
same,glycan array binding signal (z-score),[14],-0.155
same,glycan array binding signal (z-score),[15],-0.176
same,glycan array binding signal (z-score),[16],-0.184
same,glycan array binding signal (z-score),[17],-0.145
same,glycan array binding signal (z-score),[18],-0.015
same,glycan array binding signal (z-score),[19],-0.103
same,glycan array binding signal (z-score),[20],-0.143
same,glycan array binding signal (z-score),[21],-0.159
same,glycan array binding signal (z-score),[22],-0.185
same,glycan array binding signal (z-score),[23],-0.166
same,glycan array binding signal (z-score),[24],-0.145
same,glycan array binding signal (z-score),[25],-0.162
same,glycan array binding signal (z-score),[26],-0.189
same,glycan array binding signal (z-score),[27],-0.178
same,glycan array binding signal (z-score),[28],-0.184
same,glycan array binding signal (z-score),[29],-0.18
same,glycan array binding signal (z-score),[30],-0.156

# — the supplement of paper PMC8728848
